Assay results as given in the supplement of paper PMC8728848.
The other results are listed elsewhere or left out.

Experiments:
Assay in all cases: glycan array binding signal (z-score within array); higher = stronger binding
Conditions in all cases: glycan notation: IUPAC condensed, linker removed
Neu5Ac(a2-3)Gal = target: Neu5Ac(a2-3)Gal
Method in brief: (§1)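 Glycan array binding is given as a within-array Z-score, which can be read as non-binding when negative. The arrays, 3228 of them, came from the Consortium for Functional Glycomics database and were retained only where the protein sequence was available. Z-scores were averaged across arrays of the same protein sequence at different concentrations or buffers and across linkers.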

[1] = target: Neu5Ac(a2-3)Gal(b1-3)GalNAc
Method in brief: as §1

[2] = target: Neu5Ac(a2-3)Gal(b1-3)GalNAc(b1-3)Gal(a1-4)Gal(b1-4)Glc
Method in brief: as §1

[3] = target: Neu5Ac(a2-3)Gal(b1-3)GalNAc(b1-4)Gal(b1-4)Glc
Method in brief: as §1

[4] = target: Neu5Ac(a2-3)Gal(b1-3)GalNAc(b1-4)[Neu5Ac(a2-3)]Gal(b1-4)Glc
Method in brief: as §1

[5] = target: Neu5Ac(a2-3)Gal(b1-3)GalNAc(b1-4)[Neu5Ac(a2-8)Neu5Ac(a2-3)]Gal(b1-4)Glc
Method in brief: as §1

[6] = target: Neu5Ac(a2-3)Gal(b1-3)GalNAc6S
Method in brief: as §1

[7] = target: Neu5Ac(a2-3)Gal(b1-3)GlcNAc
Method in brief: as §1

[8] = target: Neu5Ac(a2-3)Gal(b1-3)GlcNAc(b1-2)Man
Method in brief: as §1

[9] = target: Neu5Ac(a2-3)Gal(b1-3)GlcNAc(b1-2)Man(a1-3)[GlcNAc(b1-4)][Neu5Ac(a2-3)Gal(b1-3)GlcNAc(b1-2)Man(a1-6)]Man(b1-4)GlcNAc(b1-4)GlcNAc
Method in brief: as §1

[10] = target: Neu5Ac(a2-3)Gal(b1-3)GlcNAc(b1-2)Man(a1-3)[Neu5Ac(a2-3)Gal(b1-3)GlcNAc(b1-2)Man(a1-6)]Man(b1-4)GlcNAc(b1-4)GlcNAc
Method in brief: as §1

[11] = target: Neu5Ac(a2-3)Gal(b1-3)GlcNAc(b1-2)[Neu5Ac(a2-3)Gal(b1-3)GlcNAc(b1-4)]Man(a1-6)[Neu5Ac(a2-3)Gal(b1-3)GlcNAc(b1-2)Man(a1-3)]Man(b1-4)GlcNAc(b1-4)GlcNAc
Method in brief: as §1

[12] = target: Neu5Ac(a2-3)Gal(b1-3)GlcNAc(b1-3)Gal(b1-3)GlcNAc
Method in brief: as §1

[13] = target: Neu5Ac(a2-3)Gal(b1-3)GlcNAc(b1-3)Gal(b1-4)GlcNAc
Method in brief: as §1

[14] = target: Neu5Ac(a2-3)Gal(b1-3)GlcNAc(b1-3)GalNAc
Method in brief: as §1

[15] = target: Neu5Ac(a2-3)Gal(b1-3)GlcNAc(b1-6)GalNAc
Method in brief: as §1

[16] = target: Neu5Ac(a2-3)Gal(b1-3)GlcNAc6S
Method in brief: as §1

[17] = target: Neu5Ac(a2-3)Gal(b1-3)[Fuc(a1-4)]GlcNAc
Method in brief: as §1

[18] = target: Neu5Ac(a2-3)Gal(b1-3)[Fuc(a1-4)]GlcNAc(b1-3)Gal(b1-3)[Fuc(a1-4)]GlcNAc
Method in brief: as §1

[19] = target: Neu5Ac(a2-3)Gal(b1-3)[Fuc(a1-4)]GlcNAc(b1-3)Gal(b1-4)[Fuc(a1-3)]GlcNAc
Method in brief: as §1

[20] = target: Neu5Ac(a2-3)Gal(b1-3)[GlcNAc(b1-6)]GalNAc
Method in brief: as §1

[21] = target: Neu5Ac(a2-3)Gal(b1-3)[Neu5Ac(a2-6)]GalNAc
Method in brief: as §1

[22] = target: Neu5Ac(a2-3)Gal(b1-3)[Neu5Ac(a2-6)]GlcNAc(b1-3)[Fuc(a1-3)[Gal(b1-4)]GlcNAc(b1-6)]Gal(b1-4)Glc
Method in brief: as §1

[23] = target: Neu5Ac(a2-3)Gal(b1-3)]Neu5Ac(a2-3)Gal(b1-4)]GlcNAc
Method in brief: as §1

Neu5Ac(a2-3)Gal(b1-4)Glc = target: Neu5Ac(a2-3)Gal(b1-4)Glc
Method in brief: as §1

[24] = target: Neu5Ac(a2-3)Gal(b1-4)GlcNAc
Method in brief: as §1

[25] = target: Neu5Ac(a2-3)Gal(b1-4)GlcNAc(b1-2)Man
Method in brief: as §1

[26] = target: Neu5Ac(a2-3)Gal(b1-4)GlcNAc(b1-2)Man(a1-3)[GlcNAc(b1-4)][Neu5Ac(a2-3)Gal(b1-4)GlcNAc(b1-2)Man(a1-6)]Man(b1-4)GlcNAc(b1-4)GlcNAc
Method in brief: as §1

[27] = target: Neu5Ac(a2-3)Gal(b1-4)GlcNAc(b1-2)Man(a1-3)[Neu5Ac(a2-3)Gal(b1-4)GlcNAc(b1-2)Man(a1-6)]Man(b1-4)GlcNAc(b1-4)GlcNAc
Method in brief: as §1

[28] = target: Neu5Ac(a2-3)Gal(b1-4)GlcNAc(b1-2)Man(a1-3)[Neu5Ac(a2-3)Gal(b1-4)GlcNAc(b1-2)Man(a1-6)]Man(b1-4)GlcNAc(b1-4)[Fuc(a1-6)]GlcNAc
Method in brief: as §1

[29] = target: Neu5Ac(a2-3)Gal(b1-4)GlcNAc(b1-2)Man(a1-3)[Neu5Ac(a2-6)Gal(b1-4)GlcNAc(b1-2)Man(a1-6)]Man(b1-4)GlcNAc(b1-4)GlcNAc
Method in brief: as §1

[30] = target: Neu5Ac(a2-3)Gal(b1-4)GlcNAc(b1-2)[Neu5Ac(a2-3)Gal(b1-4)GlcNAc(b1-4)]Man(a1-3)[GlcNAc(b1-4)][Neu5Ac(a2-3)Gal(b1-4)GlcNAc(b1-2)[Neu5Ac(a2-3)Gal(b1-4)GlcNAc(b1-6)]Man(a1-6)]Man(b1-4)GlcNAc(b1-4)GlcNAc
Method in brief: as §1

[31] = target: Neu5Ac(a2-3)Gal(b1-4)GlcNAc(b1-2)[Neu5Ac(a2-3)Gal(b1-4)GlcNAc(b1-4)]Man(a1-3)[GlcNAc(b1-4)][Neu5Ac(a2-3)Gal(b1-4)GlcNAc(b1-4)Man(a1-6)]Man(b1-4)GlcNAc(b1-4)GlcNAc
Method in brief: as §1

[32] = target: Neu5Ac(a2-3)Gal(b1-4)GlcNAc(b1-2)[Neu5Ac(a2-3)Gal(b1-4)GlcNAc(b1-6)]Man(a1-6)[Neu5Ac(a2-3)Gal(b1-4)GlcNAc(b1-2)Man(a1-3)][GlcNAc(b1-4)]Man(b1-4)GlcNAc(b1-4)GlcNAc
Method in brief: as §1

[33] = target: Neu5Ac(a2-3)Gal(b1-4)GlcNAc(b1-3)Gal
Method in brief: as §1

[34] = target: Neu5Ac(a2-3)Gal(b1-4)GlcNAc(b1-3)Gal(b1-3)GlcNAc
Method in brief: as §1

[35] = target: Neu5Ac(a2-3)Gal(b1-4)GlcNAc(b1-3)Gal(b1-4)GlcNAc
Method in brief: as §1

[36] = target: Neu5Ac(a2-3)Gal(b1-4)GlcNAc(b1-3)Gal(b1-4)GlcNAc(b1-2)Man(a1-3)[Neu5Ac(a2-3)Gal(b1-4)GlcNAc(b1-3)Gal(b1-4)GlcNAc(b1-2)Man(a1-6)]Man(b1-4)GlcNAc(b1-4)GlcNAc
Method in brief: as §1

[37] = target: Neu5Ac(a2-3)Gal(b1-4)GlcNAc(b1-3)Gal(b1-4)GlcNAc(b1-3)Gal(b1-4)GlcNAc
Method in brief: as §1

[38] = target: Neu5Ac(a2-3)Gal(b1-4)GlcNAc(b1-3)Gal(b1-4)GlcNAc(b1-3)Gal(b1-4)GlcNAc(b1-2)Man(a1-3)[Neu5Ac(a2-3)Gal(b1-4)GlcNAc(b1-3)Gal(b1-4)GlcNAc(b1-3)Gal(b1-4)GlcNAc(b1-2)Man(a1-6)]GalNAc
Method in brief: as §1

[39] = target: Neu5Ac(a2-3)Gal(b1-4)GlcNAc(b1-3)Gal(b1-4)GlcNAc(b1-3)GalNAc
Method in brief: as §1

[40] = target: Neu5Ac(a2-3)Gal(b1-4)GlcNAc(b1-3)Gal(b1-4)GlcNAc(b1-3)[Neu5Ac(a2-3)Gal(b1-4)GlcNAc(b1-3)Gal(b1-4)GlcNAc(b1-6)]GalNAc
Method in brief: as §1

[41] = target: Neu5Ac(a2-3)Gal(b1-4)GlcNAc(b1-3)Gal(b1-4)GlcNAc(b1-6)[Gal(b1-3)]GalNAc
Method in brief: as §1

[42] = target: Neu5Ac(a2-3)Gal(b1-4)GlcNAc(b1-3)Gal(b1-4)[Fuc(a1-3)]GlcNAc
Method in brief: as §1

[43] = target: Neu5Ac(a2-3)Gal(b1-4)GlcNAc(b1-3)GalNAc
Method in brief: as §1

B1: HA-11100 (Pseudomonas aeruginosa), Q02G51_PSEAB (protein)
chain: QFNPNEIKISQQGKTTLIDQSTQRAIINWKGFDVSADEAVRFNQPGVTSSTLNRVTAGQESVIAGRISAPGQVIIYNSNGVVFSGSAKVDVGSLITTTANISDEHFRQGKLIFDQPGNPDARIVNDGSISVAEKGLAAFVAPSVANNGVINARLGTVAMAAGNAATIDLYG
glycan array binding signal (z-score) (Neu5Ac(a2-3)Gal): -0.148
glycan array binding signal (z-score) [1]: -0.024
glycan array binding signal (z-score) [2]: -0.098
glycan array binding signal (z-score) [3]: -0.114
glycan array binding signal (z-score) [4]: -0.345
glycan array binding signal (z-score) [5]: -0.214
glycan array binding signal (z-score) [6]: -0.333
glycan array binding signal (z-score) [7]: -0.21
glycan array binding signal (z-score) [8]: -0.402
glycan array binding signal (z-score) [9]: -0.319
glycan array binding signal (z-score) [10]: -0.167
glycan array binding signal (z-score) [11]: 0.114
glycan array binding signal (z-score) [12]: -0.25
glycan array binding signal (z-score) [13]: -0.243
glycan array binding signal (z-score) [14]: 0.236
glycan array binding signal (z-score) [15]: -0.374
glycan array binding signal (z-score) [16]: -0.456
glycan array binding signal (z-score) [17]: -0.624
glycan array binding signal (z-score) [18]: 0.016
glycan array binding signal (z-score) [19]: -0.443
glycan array binding signal (z-score) [20]: -0.62
glycan array binding signal (z-score) [21]: -0.414
glycan array binding signal (z-score) [22]: -0.373
glycan array binding signal (z-score) [23]: -0.12
glycan array binding signal (z-score) (Neu5Ac(a2-3)Gal(b1-4)Glc): -0.314
glycan array binding signal (z-score) [24]: -0.478
glycan array binding signal (z-score) [25]: -0.223
glycan array binding signal (z-score) [26]: -0.268
glycan array binding signal (z-score) [27]: -0.258
glycan array binding signal (z-score) [28]: -0.135
glycan array binding signal (z-score) [29]: -0.268
glycan array binding signal (z-score) [30]: 0.14
glycan array binding signal (z-score) [31]: -0.462
glycan array binding signal (z-score) [32]: -0.486
glycan array binding signal (z-score) [33]: -0.422
glycan array binding signal (z-score) [34]: -0.434
glycan array binding signal (z-score) [35]: -0.347
glycan array binding signal (z-score) [36]: 0.195
glycan array binding signal (z-score) [37]: -0.481
glycan array binding signal (z-score) [38]: -0.059
glycan array binding signal (z-score) [39]: -0.481
glycan array binding signal (z-score) [40]: -0.233
glycan array binding signal (z-score) [41]: -0.11
glycan array binding signal (z-score) [42]: -0.737
glycan array binding signal (z-score) [43]: -0.358
